# Assay results reported in PubChem BioAssay AID894 (National Center for Advancing Translational Sciences (NCATS), 2007).
# The campaign covered roughly 150,000 compounds. About 6,500 (4.3%) were called active. The inconclusive results got no clear call from the source; some entries with a clear call stand among them for comparison. The call rests on the fitted dose curve; in most records, active means well fitted inhibition curve with a large enough effect (not every such curve was filed as active); inconclusive means small, poorly fitted or top-dose-only effect, or another doubt; inactive means no such curve, though single readings can be large or run the other way. No potency is given beside an inconclusive call; the fits are too rough.
# Target: 15-hydroxyprostaglandin dehydrogenase [NAD(+)] (Homo sapiens) (UniProt P15428)
# Sequence of UniProt P15428 (P15428 whole entry, looked up): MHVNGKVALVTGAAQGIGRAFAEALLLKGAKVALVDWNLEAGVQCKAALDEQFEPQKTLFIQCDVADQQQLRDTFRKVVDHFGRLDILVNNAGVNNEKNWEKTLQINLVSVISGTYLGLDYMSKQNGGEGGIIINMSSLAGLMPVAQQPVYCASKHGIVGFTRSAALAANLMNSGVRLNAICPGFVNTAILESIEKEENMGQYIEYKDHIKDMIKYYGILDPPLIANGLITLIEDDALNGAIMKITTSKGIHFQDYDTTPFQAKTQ
# Assay: qHTS Assay for Inhibitors of HPGD (15-Hydroxyprostaglandin Dehydrogenase)
# Settings: purified HPGD, NADH fluorescence kinetic, PGE2 substrate; activity change, negative = inhibition: hits give low values
# Summary of the method: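 20 nM HPGD preincubated 15 min at room temperature with compound in 50 mM Tris-HCl pH 8, 0.01% Tween 20. Started with 1 mM NAD+ and 30 uM prostaglandin E2; NADH fluorescence (360/450 nm) read 5 times over 30-s intervals, last minus first.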
# On the % scale 0 is the no-effect control and ±100 the full control effect; potency means the concentration at half of the fitted maximal effect; tags describe the fitted curve by direction and shape.
Compound,Potency,"activity change, negative = inhibition"
Cc1ccc(NC(=O)c2oc3ccccc3c2NC(=O)c2ccc3c(c2)OCO3)cc1,"inconclusive [inhibitor, partial curve]",–
COc1ccccc1C(=O)OCC(=O)c1cccc([N+](=O)[O-])c1,–,inactive: -23.3%
CCOC(=O)c1cc(-c2ccc(Cl)cc2)nc2onc(C)c12,"inconclusive [inhibitor, partial curve]",–
O=c1[nH]c(SCc2ccc(Cl)cc2)nc2c1CCC2,active: 4.47 µM,–
CCOC(=O)N1CCN(C(c2ccc(F)cc2)c2sc3nc(C)nn3c2O)CC1 (stereo not drawn),–,inactive: -10.5%
CC(C)C(=O)Nc1ccc(C(=O)c2ccccc2)cc1,active: 14.1 µM,–
O=C(C1CCN(S(=O)(=O)c2cccc3nsnc23)CC1)N1CCc2ccccc2C1,"inconclusive [inhibitor, partial curve]",–
CCOC(=O)c1ccc(-n2c(C)ccc2C)cc1,"inconclusive [inhibitor, partial curve]",–
COc1ccc(-c2nn(-c3ccccc3)cc2C(=O)n2nnc3ccccc32)cc1,"inconclusive [inhibitor, partial curve]",–
Cc1ccc(C(=O)Oc2coc(CSc3nnc(NC(=O)c4cccs4)s3)cc2=O)cc1C,"inconclusive [inhibitor, partial curve]",–
O=C1c2ccccc2C(Nc2ccc3c(c2)OCO3)N1Cc1ccc2c(c1)OCO2 (stereo not drawn),"inconclusive [inhibitor, partial curve]",–
COc1ccccc1-c1cc(C(=O)Nc2cc(C)nn2-c2ccccc2)no1,–,inactive: -18.4%
Cn1nc(-c2ccc(Cl)cc2)c2cc(C(=O)NCc3ccco3)sc21,"inconclusive [inhibitor, single point]",–
CCOC(=O)C1CCCN(C(=O)c2ccc(C)cc2O)C1 (stereo not drawn),active: 14.1 µM,–
COc1ccc(Nc2oc(-c3ccccc3Cl)nc2C#N)cc1,"inconclusive [inhibitor, partial curve]",–
c1ccc(Cc2nn3c(COc4ccccc4)nnc3s2)cc1,active: 10 µM,–
CC(C)C(c1nnnn1C1CCCCC1)N1CCCc2ccccc21 (stereo not drawn),–,inactive: -9.96%
C[N+](C)(CCCCCC[N+](C)(C)CCCN1C(=O)c2cccc3cccc(c23)C1=O)CCCN1C(=O)c2cccc3cccc(c23)C1=O,"inconclusive [inhibitor, partial curve]",–
CCCCNS(=O)(=O)c1ccc2nc(SCC(=O)Nc3cccc(F)c3)[nH]c2c1,–,inactive: -3.04%
Cc1c(Nc2cc(N3CCCCCC3)c3nonc3c2[N+](=O)[O-])c(=O)n(-c2ccccc2)n1C,active: 11.2 µM,–
CCCCC[n+]1ccn(-c2nc3ccccc3nc2[N-]S(=O)(=O)c2ccc(C)cc2)c1,"inconclusive [inhibitor, partial curve]",–
CS(=O)(=O)Nc1ccccc1C(=O)Nc1cc(Cl)cc(Cl)c1,"inconclusive [inhibitor, partial curve]",–
CCOc1cccc(C(=O)NC2CCCCC2)c1,active: 28.2 µM,–
CCOC(=O)C(Nc1ccc2ccccc2c1)C(=O)OCC,"inconclusive [inhibitor, partial curve]",–
CCOC(=O)c1c(C)[nH]c(C(=O)C(C)OC(=O)c2cccc(OCc3c(C)noc3C)c2)c1C (stereo not drawn),"inconclusive [inhibitor, full curve, poor fit]",–

Compound,Potency,"activity change, negative = inhibition"
COCCN(C(=O)CN1CCN(S(=O)(=O)c2ccc(F)cc2)CC1)c1c(N)n(Cc2ccccc2)c(=O)[nH]c1=O,–,inactive: 0.756%
CCN(CC)CCCNC(=O)c1cc(Sc2nnc(C)s2)nc2ccccc12,active: 28.2 µM,–
CCc1ccccc1NC(=S)N(CCCN1CCOCC1)Cc1cccs1,–,inactive: -4.33%
Cc1ccc(Cn2ccc(NC(=O)c3cc(-c4ccc5c(c4)OCO5)on3)n2)cc1,"inconclusive [inhibitor, partial curve]",–
Nc1sc(-c2ccccc2)cc1C(=O)O,"inconclusive [inhibitor, partial curve]",–
Oc1ccc(-c2nc3ccccn3c2NCc2ccc3c(c2)OCO3)cc1,"inconclusive [inhibitor, partial curve]",–
CCC(C)(c1ccc(C(=O)OC)s1)c1ccc(C(=O)OC)s1,"inconclusive [inhibitor, partial curve]",–
COc1cccc(/C=N/NC(=O)C(=O)N2CCCC2)c1O,"inconclusive [inhibitor, partial curve, poor fit]",–
C=CCOC(=O)COc1ccc2c(C)c(CC)c(=O)oc2c1,"inconclusive [inhibitor, partial curve]",–
CC(C)OCCCNc1ncnc2c1[nH]c1ccc(F)cc12,"inconclusive [inhibitor, partial curve]",–
COc1ccc(Cc2nnc(SCC(=O)c3ccc(OC)cc3)o2)cc1,–,inactive: -4.21%
CCOC(=O)c1ccc(NC(=S)NCCC2=CCCCC2)cc1,active: 14.1 µM,–
Cc1cc(N2C(=O)C=CC2=O)c([N+](=O)[O-])cc1C,active: 2.82 µM,–
O=C(Nc1cc(Cl)c(O)c(Cl)c1)C1CCCO1 (stereo not drawn),active: 25.1 µM,–
CCOc1cc(C)c(-c2onc(C(F)(F)F)c2-c2csc(C)n2)c(O)c1,–,inactive: -11.8%
Cc1cc(C(C)(C)C)oc1C(=O)N(CC(=O)NC1CCCC1)Cc1ccc(Cl)cc1,"inconclusive [inhibitor, single point]",–
O=C(N/N=C/c1cccc(C(F)(F)F)c1)c1cc2c(s1)-c1ccccc1CC2,"inconclusive [inhibitor, partial curve]",–
O=C(C1CC(c2ccccc2O)=NO1)N1CCCCC1 (stereo not drawn),active: 7.94 µM,–
CCS(=O)(=O)Nc1ccc(C(=O)c2ccccc2)cc1,active: 0.282 µM,–
c1coc(-c2nc3nc4ccccc4nc3n2-c2ccc3c(c2)OCCO3)c1,"inconclusive [inhibitor, partial curve]",–
CCC(C)n1cnc2c(c1=O)c1nc3ccccc3nc1n2Cc1ccc(OC)cc1 (stereo not drawn),"inconclusive [inhibitor, partial curve]",–
CC(C)(C)Cc1nnc(NC(=O)Cc2ccc([N+](=O)[O-])cc2)s1,active: 14.1 µM,–
COc1ccc(NC(=O)c2ccccc2NS(C)(=O)=O)cc1OC,–,inactive: -16.1%
Cc1ccc(-n2c(C)cc(C(=O)CN3CCCCC3)c2C)cc1,active: 12.6 µM,–
CCc1ccc(NC(=O)C2C3/C=C\CCCCC32)cc1 (stereo not drawn),–,inactive: -12.8%

Compound,Potency,"activity change, negative = inhibition"
O=C(O)c1ccc2c(=O)n3c(nc2c1)/C(=C/c1cccc(Cl)c1Cl)CCCC3,"inconclusive [inhibitor, partial curve, poor fit]",–
O=C(c1ccc(Cl)nc1)N1CCc2ccccc2C1,active: 7.94 µM,–
COCCCNC(=O)C(=O)N/N=C/c1ccc(OCC(=O)Nc2cccc(Cl)c2C)c(OC)c1,"inconclusive [inhibitor, partial curve]",–
Cn1c(C(=O)NCc2cccs2)cc2oc3ccccc3c21,"inconclusive [inhibitor, partial curve]",–
COc1ccc(C2CC(c3ccccc3OC(C)=O)=NN2C(=O)/C=C/c2ccccc2)cc1OC (stereo not drawn),"inconclusive [inhibitor, partial curve]",–
O=C1/C(=C/c2ccco2)Cc2ccccc21,"inconclusive [inhibitor, partial curve, poor fit]",–
CCSc1nnc(NC(=O)c2cccnc2Cl)s1,–,inactive: -9.57%
N#Cc1cc2c(nc1SCC1COc3ccccc3O1)CCC2 (stereo not drawn),active: 25.1 µM,–
CCCC(=O)NCCc1c2n(c3ccc(OC)cc13)Cc1ccccc1-2,"inconclusive [inhibitor, partial curve]",–
O=C(NCCC(c1ccccc1)c1ccccc1)c1ccc(Br)o1,active: 14.1 µM,–
CCCCc1cc(=O)oc2cc(OCc3cc(OC)c(OC)c(OC)c3)c(Cl)cc12,–,inactive: -23.3%
COc1cccc(N2CC(C(=O)Nc3nnc(SCc4ccccn4)s3)CC2=O)c1 (stereo not drawn),"inconclusive [inhibitor, single point]",–
O=C(c1cccs1)c1no[n+]([O-])c1C(=O)c1cccs1,active: 12.6 µM,–
CCN(CC)c1ncnc2c1sc1nc(N3CCOCC3)c3c(c12)CCC3,"inconclusive [inhibitor, single point]",–
COc1ccc(CCC(C)Nc2ccc(F)c(F)c2)cc1 (stereo not drawn),–,inactive: -8.8%
O=C(CSc1nc2ccccc2s1)N1CCN(C(=O)c2ccco2)CC1,–,inactive: -27.5%
COc1ccc2[nH]cc(CC(=O)O)c2c1,–,inactive: -17.1%
c1cncc(-c2nc(NCCN3CCOCC3)c3ccccc3n2)c1,–,inactive: -8.46%
COc1cccc2cc(C(=O)N3CCN(C/C=C/c4ccccc4)CC3)c(=O)oc12,"inconclusive [inhibitor, partial curve]",–
CCN1C(=O)CC(N2CCN(CC(=O)NC(C)C)CC2)C1=O (stereo not drawn),–,inactive: -3.56%
C=CCn1c(CCNC(=O)c2ccccc2F)nnc1SCC(=O)Nc1nc2ccccc2s1,–,inactive: 2.84%
CCOC(=O)c1ncn2c1CN(C)C(=O)c1cc(F)ccc1-2,–,inactive: -5.26% [middle of 4 runs]
CCSc1ccc(-c2nn(-c3ccccc3)cc2/C=C(/C#N)C(=O)NC)cc1,"inconclusive [inhibitor, partial curve]",–
